From publication PMC7819943, “Rice protein-binding microarrays: a tool to detect cis-acting elements near promoter regions in rice”
The list shows a part of the results.

Target: T1, OsWOX13 (Oryza sativa, UniProt Q5QMM3 1-267)
T1 sequence: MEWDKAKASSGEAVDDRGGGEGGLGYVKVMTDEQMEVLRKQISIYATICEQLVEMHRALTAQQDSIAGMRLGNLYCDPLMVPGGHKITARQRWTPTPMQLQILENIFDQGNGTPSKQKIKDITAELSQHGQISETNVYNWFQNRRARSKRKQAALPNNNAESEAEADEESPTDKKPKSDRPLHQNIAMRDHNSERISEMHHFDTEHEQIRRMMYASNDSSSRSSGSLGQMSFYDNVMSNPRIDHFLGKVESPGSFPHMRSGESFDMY
Assay: protein-binding microarray (RPBM); PBS, 2% BSA, 51.3 ng/ul salmon testes DNA, 50 uM zinc acetate, 200 nM TF, 25 C, 1 h; high values mean tight binding
Details: protein: recombinant; tags: N-terminal polyhistidine and DsRed monomer fusion (pET32a); label: CyDye5-dUTP incorporated in the synthesized complementary strand; 3' TTTTT single-stranded linker to array surface; dsDNA, one strand shown
In short: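 A custom Agilent array was converted to double-stranded form by primer extension with Cy5-dUTP and blocked with 2% BSA. Protein at 200 nM in PBS with 2% BSA, salmon testes DNA and 50 µM zinc acetate was applied for 1 h at 25 °C, followed by washing. The proteins were polyhistidine–DsRed N-terminal fusions of transcription factors, expressed in E. coli BL21-CodonPlus and Ni–NTA-purified. The binding signal is per-feature fluorescence intensity (arbitrary units) from an Axon 4000B scanner.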

Point of comparison: “CAGCATTGACAGGCACTTAGCTAAGTACGTAGCTATATAGCGGAGTCACCTAGTGCAG”, binding signal 11000 fluorescence intensity (a.u.). Against it:
- CACAGGATTGAGAGAATGGCTTCCAGCTCACTCGGGGTTTCGGAGTCACCTAGTGCAG — higher, 22600 fluorescence intensity (a.u.)
- AAAATATGTGGGTGATTTATTACAATAGAGTATGTGGTGGCGGAGTCACCTAGTGCAG — lower, 3580 fluorescence intensity (a.u.)
- CCTCGTCAATCCCCAAACCCTCCTCCTCCTCTCCGGCGATCGGAGTCACCTAGTGCAG — lower, 3510 fluorescence intensity (a.u.)
- TTTGCCTTTTGATTGTATGACTGGAATGCTTGTTGAGCTTCGGAGTCACCTAGTGCAG — higher, 11900 fluorescence intensity (a.u.)
- TAAATGACTGAAACATTTTCGATCTACTTAGTGAAACAATCGGAGTCACCTAGTGCAG — lower, 4580 fluorescence intensity (a.u.)
- CGTTTCATTAATTCTGACATTTTATCACACAAACATGCATCGGAGTCACCTAGTGCAG — lower, 3740 fluorescence intensity (a.u.)
- TTTTAGTTATAAATCACTGTAATTTTAGCATATTGCAACCCGGAGTCACCTAGTGCAG — lower, 4020 fluorescence intensity (a.u.)
- CCTTGCCTGACAACAATCAATTAGTTTGCTACTGCTACTCCGGAGTCACCTAGTGCAG — higher, 16100 fluorescence intensity (a.u.)
- TTATAATAAGCTGACAGAGAATAAACTGTGAGTTGTTTGTCGGAGTCACCTAGTGCAG — lower, 3760 fluorescence intensity (a.u.)
- AATAGACATATAAATGTCACTGTCTAAATAATAGGGACCTCGGAGTCACCTAGTGCAG — lower, 5220 fluorescence intensity (a.u.)
- TGTAATTAAATTTGTGATTTGTGAACCTTCTTCAATTCTACGGAGTCACCTAGTGCAG — higher, 31200 fluorescence intensity (a.u.)
- TCGTAATTTACAAATAAATAAGGTGCGATTGACAAATAACCGGAGTCACCTAGTGCAG — higher, 29000 fluorescence intensity (a.u.)
- CCCCTTCATCAGTGCCTAATTAGCTGTAGTGTCGGTTAGGCGGAGTCACCTAGTGCAG — higher, 13400 fluorescence intensity (a.u.)
- TAATAACGAATTAATTAGATTTAATAAATTCATATCGCAGCGGAGTCACCTAGTGCAG — higher, 23500 fluorescence intensity (a.u.)
- ACTAAAATTTGATAAAATTTATTTTGCCTATAATATAAACCGGAGTCACCTAGTGCAG — lower, 6120 fluorescence intensity (a.u.)
- CCCCTCTTAATTATTCAACCCTCCCAGAAATATGACTCATCGGAGTCACCTAGTGCAG — lower, 3360 fluorescence intensity (a.u.)
- TTATAATTAGTCCGAAAATCGTGACTGCAAACATATCCATCGGAGTCACCTAGTGCAG — higher, 14600 fluorescence intensity (a.u.)
- TCCAATTTACTAATTACCACTTTATACGTACAATTATTGACGGAGTCACCTAGTGCAG — higher, 23500 fluorescence intensity (a.u.)
- CACACACTAATTAATGTCGTACGAATGCTACGTACAGTCACGGAGTCACCTAGTGCAG — higher, 11600 fluorescence intensity (a.u.)
- TCACGGTCACATTAATTACCTAATGTCTGTCAACTTCATGCGGAGTCACCTAGTGCAG — lower, 10600 fluorescence intensity (a.u.)
- ACAATAAATTTTAAATGGATTTATGTCTCGTGTGATGTGTCGGAGTCACCTAGTGCAG — higher, 22800 fluorescence intensity (a.u.)
- TTTAATTGGTTAAATGAACTATGTAATGTTATAATTATATCGGAGTCACCTAGTGCAG — higher, 33200 fluorescence intensity (a.u.)
- ATAGTTGTGATTAGATTGTGACGTACACAATGAGTATGCACGGAGTCACCTAGTGCAG — higher, 45300 fluorescence intensity (a.u.)
- GTGCAAAATTATCAATCACAAGCACAAGTAGTCAATCACTCGGAGTCACCTAGTGCAG — higher, 31600 fluorescence intensity (a.u.)
- CGTTTAACAGGCTTGTTTCAAAGCGCTCAGGATCTAAGTGCGGAGTCACCTAGTGCAG — lower, 5050 fluorescence intensity (a.u.)
- TTGATTTATAAATCTAATTTAGGCTTGGGAAAAGAACTTTCGGAGTCACCTAGTGCAG — higher, 21100 fluorescence intensity (a.u.)
- GTCCTAAAATTACATATGTAAATTCTAAAATTATATATGTCGGAGTCACCTAGTGCAG — lower, 3590 fluorescence intensity (a.u.)
- CCTGAATTGACTCTAGCTTATTGCCTTCGAATTAGGCTTGCGGAGTCACCTAGTGCAG — higher, 15300 fluorescence intensity (a.u.)
- CCAACTGATTTAAACTCCCAATTGAAAGATCTTAAAACTTCGGAGTCACCTAGTGCAG — higher, 20700 fluorescence intensity (a.u.)
- CGCCGATTGGCCGTCGCTGTCGATCGGTCGATGGTGAGGTCGGAGTCACCTAGTGCAG — lower, 8300 fluorescence intensity (a.u.)
- ATGATAGATGGACACCGCATGAAGTATTGATGTGATGTGGCGGAGTCACCTAGTGCAG — higher, 42100 fluorescence intensity (a.u.)
- CTAACAAATTGAAAGCAATACATAATACATGTAGATCCTTCGGAGTCACCTAGTGCAG — higher, 17400 fluorescence intensity (a.u.)
- ATTAATTAATTGAAAATAATCTCTAAATACCATAGCAATCCGGAGTCACCTAGTGCAG — higher, 46500 fluorescence intensity (a.u.)
- AGTGTACTCATCTTAAATTTTAATTACCACCAGCCCAATTCGGAGTCACCTAGTGCAG — lower, 4890 fluorescence intensity (a.u.)
- AAATTAATTAGGTCGACTTGCCCAACGAGACAAATATAATCGGAGTCACCTAGTGCAG — lower, 3340 fluorescence intensity (a.u.)
- TTTATAATTAACATCCGAATAGACAACGAATCCACTCTCACGGAGTCACCTAGTGCAG — higher, 19800 fluorescence intensity (a.u.)
- CCTGATTTAGCACATGTGGTACACGGACAGGTTGATCGATCGGAGTCACCTAGTGCAG — higher, 14700 fluorescence intensity (a.u.)
- CCATTAATTTTAAAGTGGAAGAGTATTTCATACCGCGGCCCGGAGTCACCTAGTGCAG — lower, 8400 fluorescence intensity (a.u.)
- ATCTTAATTTTATGATATGACGTTTTATTCTGTACTATCTCGGAGTCACCTAGTGCAG — higher, 11100 fluorescence intensity (a.u.)
- GTCAATTATCCATGTTAACCACAATCTAGTACAATACTGCCGGAGTCACCTAGTGCAG — higher, 14700 fluorescence intensity (a.u.)
- TGAAATGCAATTGACAAGCATCCAAATCCCAGAAATGCCACGGAGTCACCTAGTGCAG — lower, 4590 fluorescence intensity (a.u.)
- GCAATTGACGACGAGAAATCAATCGAAAACGAAATAATTGCGGAGTCACCTAGTGCAG — lower, 9040 fluorescence intensity (a.u.)
- GGTTGCTTTGATGAATAATCAGTTCACACTGCGAGTGATTCGGAGTCACCTAGTGCAG — lower, 4800 fluorescence intensity (a.u.)
- GTGGAAAATCATCAAATCAGTAAAGACTTTCTTGTAGTTGCGGAGTCACCTAGTGCAG — lower, 4500 fluorescence intensity (a.u.)
- GAGCCTAATTACGCCATGATTTGACAATGTGGTGCTACAGCGGAGTCACCTAGTGCAG — higher, 39300 fluorescence intensity (a.u.)
- CTAGTGTAATTAATTACTTGATTCATTGAGTATAAAGCTGCGGAGTCACCTAGTGCAG — higher, 45100 fluorescence intensity (a.u.)
- AAACATAATATATATGATTAATACACACGTATTAGTGTTACGGAGTCACCTAGTGCAG — lower, 10300 fluorescence intensity (a.u.)
- ATCGTCTAAATTAGCACAAATAAATATTAATAACATGATACGGAGTCACCTAGTGCAG — lower, 4560 fluorescence intensity (a.u.)
- ATTCAGCTCAGTAAATCTGTTGATTGCTCGTTTCAAATCACGGAGTCACCTAGTGCAG — lower, 3390 fluorescence intensity (a.u.)
- ATTTCCAAATTTGATTCTTTTCATATAGTTATAGCATATTCGGAGTCACCTAGTGCAG — lower, 3650 fluorescence intensity (a.u.)
- AAGTAGATTAGTATATTCCTTCCATTTTAAAATATAGCAACGGAGTCACCTAGTGCAG — lower, 5900 fluorescence intensity (a.u.)
- TCTAAATTAATAAGCATATGATATGAATAAAACTAAAAGTCGGAGTCACCTAGTGCAG — higher, 14500 fluorescence intensity (a.u.)
- GAAAATTGTTTATTTTGGAAACTAAACAAAGCCTTAAGCTCGGAGTCACCTAGTGCAG — lower, 8250 fluorescence intensity (a.u.)
